According to the BET-seq Pho4 binding data (Le et al. 2018):
The list shows a part of the results. These are noisy estimates, calculated here from bound and input reads.

Each sequence was assayed against T1, Pho4 (S. cerevisiae) (UniProt P07270) (assay: relative binding free energy (BET-seq); higher = weaker binding). Conditions: reference: library average.
T1 sequence: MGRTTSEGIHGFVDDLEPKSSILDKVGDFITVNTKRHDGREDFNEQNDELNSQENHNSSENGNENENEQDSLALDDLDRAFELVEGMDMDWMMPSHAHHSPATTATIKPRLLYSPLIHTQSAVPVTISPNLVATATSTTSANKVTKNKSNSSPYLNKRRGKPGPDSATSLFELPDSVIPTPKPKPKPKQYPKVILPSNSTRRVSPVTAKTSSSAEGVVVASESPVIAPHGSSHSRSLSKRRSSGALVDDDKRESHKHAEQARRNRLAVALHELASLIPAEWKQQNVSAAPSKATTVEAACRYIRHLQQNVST
TTCGGCACGTGCTTTT was tested, and the “relative binding free energy” value was -0.15 kcal/mol. For TCCTTCACGTGTAGGG, the “relative binding free energy” value was 0.29 kcal/mol. For CCTGGCACGTGCGGGG, the “relative binding free energy” value was -0.22 kcal/mol. GTAGGCACGTGGGTCT was tested, and the “relative binding free energy” value was -0.18 kcal/mol. In the case of TATATCACGTGTGTGG, the “relative binding free energy” value is reported as 0.23 kcal/mol. With ACTTTCACGTGGGGGC the “relative binding free energy” value was 0.16 kcal/mol. TGCTTCACGTGGTGTG was tested, and the “relative binding free energy” value was 0.08 kcal/mol. ATGAACACGTGGTGCG was tested, and the “relative binding free energy” value was -0.02 kcal/mol. GTTTACACGTGGGTCC was tested, and the “relative binding free energy” value was 0.04 kcal/mol. With GTAGTCACGTGGGGGG the “relative binding free energy” value was 0.06 kcal/mol. With TGGGCCACGTGCCGGG the “relative binding free energy” value was -0.19 kcal/mol. ATATGCACGTGTTTGT was tested, and the “relative binding free energy” value was -0.02 kcal/mol. With TTGGGCACGTGTGAGT the “relative binding free energy” value was 0.02 kcal/mol. With TTGATCACGTGATTGG the “relative binding free energy” value was 0.25 kcal/mol. In the case of TGTGGCACGTGATCGT, the “relative binding free energy” value is reported as -0.15 kcal/mol. TCTTACACGTGGAGGG was tested, and the “relative binding free energy” value was 0.1 kcal/mol. For TAGGGCACGTGTTTCG, the “relative binding free energy” value was -0.2 kcal/mol. With TGTTTCACGTGCCGGT the “relative binding free energy” value was 0.27 kcal/mol. For GATGTCACGTGACGTT, the “relative binding free energy” value was 0.24 kcal/mol. With TGGGGCACGTGGATAC the “relative binding free energy” value was -0.13 kcal/mol. With TGGATCACGTGATCGT the “relative binding free energy” value was 0.26 kcal/mol. In the case of AGTTGCACGTGCGGAG, the “relative binding free energy” value is reported as 0 kcal/mol. With GGGAACACGTGGTGCG the “relative binding free energy” value was -0.04 kcal/mol. TAGAACACGTGGAGGT was tested, and the “relative binding free energy” value was -0.01 kcal/mol. TGACTCACGTGGTCGG was tested, and the “relative binding free energy” value was 0.12 kcal/mol. GTTGGCACGTGTAAAG was tested, and the “relative binding free energy” value was 0.17 kcal/mol. For ATTGCCACGTGAGTTG, the “relative binding free energy” value was 0.16 kcal/mol. With TCAGTCACGTGGTAGG the “relative binding free energy” value was 0.03 kcal/mol. With GATTGCACGTGGGGTC the “relative binding free energy” value was -0.13 kcal/mol. AATTCCACGTGGTTTA was tested, and the “relative binding free energy” value was 0.04 kcal/mol. With TTTGTCACGTGGTTTG the “relative binding free energy” value was 0.15 kcal/mol. In the case of GCAGTCACGTGTGAGG, the “relative binding free energy” value is reported as 0.09 kcal/mol. TGTGTCACGTGGAGAC was tested, and the “relative binding free energy” value was 0.17 kcal/mol. With CCTTTCACGTGAAGTT the “relative binding free energy” value was 0.58 kcal/mol. In the case of AGGGGCACGTGGGCCG, the “relative binding free energy” value is reported as -0.34 kcal/mol. CGGTTCACGTGTCTTG was tested, and the “relative binding free energy” value was 0.25 kcal/mol. In the case of TATGCCACGTGTAAGT, the “relative binding free energy” value is reported as 0.02 kcal/mol. With ATAATCACGTGTCGTT the “relative binding free energy” value was 0.13 kcal/mol. TTTGTCACGTGTTCAT was tested, and the “relative binding free energy” value was 0.1 kcal/mol. GGCTGCACGTGTTGTA was tested, and the “relative binding free energy” value was 0.06 kcal/mol. In the case of TGTAGCACGTGATTTA, the “relative binding free energy” value is reported as 0.05 kcal/mol. In the case of AAGAACACGTGTAGGT, the “relative binding free energy” value is reported as -0.02 kcal/mol. With GGGGTCACGTGATGAC the “relative binding free energy” value was 0.38 kcal/mol. TTAATCACGTGTGTTT was tested, and the “relative binding free energy” value was 0.22 kcal/mol. TTGTTCACGTGCGAGA was tested, and the “relative binding free energy” value was 0.32 kcal/mol. In the case of GTAAACACGTGTAAGG, the “relative binding free energy” value is reported as 0.1 kcal/mol. With AAGGTCACGTGAATGT the “relative binding free energy” value was 0.26 kcal/mol. With TTGAGCACGTGAGGTG the “relative binding free energy” value was 0.17 kcal/mol. For CAGTGCACGTGTGTGC, the “relative binding free energy” value was 0 kcal/mol. With GGTGACACGTGTGCAA the “relative binding free energy” value was 0.09 kcal/mol. GAGTGCACGTGGTCAT was tested, and the “relative binding free energy” value was -0.03 kcal/mol. For AAGGTCACGTGTCGGT, the “relative binding free energy” value was 0.18 kcal/mol. With TGGCGCACGTGTACGT the “relative binding free energy” value was 0 kcal/mol. In the case of GCGATCACGTGTGTGT, the “relative binding free energy” value is reported as 0.17 kcal/mol. For TATTTCACGTGGCGCG, the “relative binding free energy” value was 0.06 kcal/mol. ATTTACACGTGATGTT was tested, and the “relative binding free energy” value was 0.26 kcal/mol. In the case of TGATACACGTGTGATT, the “relative binding free energy” value is reported as 0.15 kcal/mol. With GGGAACACGTGTGCGA the “relative binding free energy” value was 0.11 kcal/mol. In the case of GGTCTCACGTGCAGGG, the “relative binding free energy” value is reported as 0.12 kcal/mol. TGTGTCACGTGGGCCA was tested, and the “relative binding free energy” value was -0.14 kcal/mol. With ATATACACGTGGGAAT the “relative binding free energy” value was -0.03 kcal/mol. For AGAACCACGTGGGGGG, the “relative binding free energy” value was -0.09 kcal/mol. With AAGGTCACGTGGGCAG the “relative binding free energy” value was -0.02 kcal/mol. In the case of ATTGGCACGTGTTTCG, the “relative binding free energy” value is reported as -0.14 kcal/mol. AGTCGCACGTGTCTTG was tested, and the “relative binding free energy” value was 0.12 kcal/mol. With CATGTCACGTGGATGT the “relative binding free energy” value was 0.16 kcal/mol. With GGGGCCACGTGGCGCG the “relative binding free energy” value was -0.13 kcal/mol. With CGGCCCACGTGGGTGG the “relative binding free energy” value was -0.21 kcal/mol. With ATTTGCACGTGATCGG the “relative binding free energy” value was 0.09 kcal/mol. For ATAGGCACGTGTCTAG, the “relative binding free energy” value was -0.1 kcal/mol. For TAATTCACGTGGGTTA, the “relative binding free energy” value was 0.12 kcal/mol. For GGTTCCACGTGACGGG, the “relative binding free energy” value was 0.11 kcal/mol. In the case of CCGTTCACGTGAGGTG, the “relative binding free energy” value is reported as 0.3 kcal/mol. In the case of GTGCACACGTGGGGTC, the “relative binding free energy” value is reported as -0.13 kcal/mol. In the case of GCATTCACGTGTAATT, the “relative binding free energy” value is reported as 0.36 kcal/mol. With ATTAGCACGTGGTTTA the “relative binding free energy” value was -0.11 kcal/mol. With TTTCGCACGTGTGCTG the “relative binding free energy” value was -0.1 kcal/mol. With GGTTTCACGTGATGCA the “relative binding free energy” value was 0.31 kcal/mol. In the case of CGTAGCACGTGAGGTG, the “relative binding free energy” value is reported as 0.12 kcal/mol. In the case of GAGCTCACGTGGGGTT, the “relative binding free energy” value is reported as 0.17 kcal/mol. With CGTAACACGTGAGTGT the “relative binding free energy” value was 0.1 kcal/mol. In the case of GTCTGCACGTGGTTTG, the “relative binding free energy” value is reported as -0.04 kcal/mol. In the case of TAGGTCACGTGAAACT, the “relative binding free energy” value is reported as 0.35 kcal/mol. With CTATGCACGTGTTATG the “relative binding free energy” value was -0.1 kcal/mol. In the case of AGAAACACGTGGGATG, the “relative binding free energy” value is reported as -0.12 kcal/mol. GGTCGCACGTGGCATG was tested, and the “relative binding free energy” value was -0.18 kcal/mol. In the case of GTAGGCACGTGTTGTA, the “relative binding free energy” value is reported as -0.11 kcal/mol. With GAGTTCACGTGTAGTT the “relative binding free energy” value was 0.3 kcal/mol. For AGGGCCACGTGATTTT, the “relative binding free energy” value was 0.26 kcal/mol. For GGGGGCACGTGCGCTA, the “relative binding free energy” value was -0.16 kcal/mol. For AAATTCACGTGGTCTT, the “relative binding free energy” value was 0.27 kcal/mol. For TTGGCCACGTGTACGG, the “relative binding free energy” value was 0.06 kcal/mol. In the case of GGAGTCACGTGCGGGT, the “relative binding free energy” value is reported as 0.05 kcal/mol. For TGTCACACGTGGGGCA, the “relative binding free energy” value was -0.13 kcal/mol. With TGTTCCACGTGGTGGG the “relative binding free energy” value was 0.06 kcal/mol. In the case of ACGAACACGTGGGGTG, the “relative binding free energy” value is reported as -0.23 kcal/mol. In the case of ATTGTCACGTGGTGTC, the “relative binding free energy” value is reported as -0.05 kcal/mol. GAATTCACGTGGTGCG was tested, and the “relative binding free energy” value was 0.23 kcal/mol. With GCATACACGTGAGGGT the “relative binding free energy” value was 0.24 kcal/mol. For GGATACACGTGATTTT, the “relative binding free energy” value was 0.23 kcal/mol. With GACGTCACGTGGTTTG the “relative binding free energy” value was 0.14 kcal/mol. In the case of TGCTACACGTGTTGTT, the “relative binding free energy” value is reported as 0.12 kcal/mol. In the case of AAGGGCACGTGTCTTG, the “relative binding free energy” value is reported as -0.17 kcal/mol. TGGAGCACGTGGACAG was tested, and the “relative binding free energy” value was -0.02 kcal/mol. For GGGAACACGTGGAAGT, the “relative binding free energy” value was 0.24 kcal/mol. In the case of GTTATCACGTGGTATC, the “relative binding free energy” value is reported as 0.02 kcal/mol. TTATACACGTGAGCGT was tested, and the “relative binding free energy” value was 0.17 kcal/mol. CGAGGCACGTGACGGT was tested, and the “relative binding free energy” value was -0.06 kcal/mol. For TGTGTCACGTGACCAG, the “relative binding free energy” value was 0.15 kcal/mol. For CATTGCACGTGGTGTA, the “relative binding free energy” value was -0.11 kcal/mol. In the case of AGAGACACGTGATTGT, the “relative binding free energy” value is reported as 0.08 kcal/mol. With AAAGGCACGTGGTATT the “relative binding free energy” value was -0.1 kcal/mol. With TAGGGCACGTGGTGAC the “relative binding free energy” value was -0.22 kcal/mol. For AATTTCACGTGTTTTA, the “relative binding free energy” value was 0.31 kcal/mol. In the case of CGGAGCACGTGGAGAG, the “relative binding free energy” value is reported as -0.11 kcal/mol.
